This is an account of results in PubChem BioAssay (NCI).

Values joined by “and” are separate entries in the source; they are usually repeats but may differ in a detail not shown here. Identical values can stand only once.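 Interpolation was linear, between the two tested concentrations surrounding the appropriate level; five concentrations were tested over 48 hours in 96-well plates. GI50 is the concentration that inhibits growth by half. Definition used: TGI = concentration required for complete inhibition of growth.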 Bounds are passed on as bounds.

The experiment has as its system NCI-H322M lung. The experiment can be described thus: NCI-60 cell line screen, 48 h.
For `CC(=O)N1c2ccccc2Sc2cc(C(O)(C(F)(F)F)C(F)(F)F)ccc21`, the TGI was over 10 µM.
In turn, `Cc1ccc(S(=O)(=O)NNC(=S)Nc2cccc3ccccc23)cc1` yielded a TGI of over 100 µM.
Same read-out and setting: as for `O=[N+]([O-])C1C2C=CC(C2)[C@H]1c1ccccc1Cl` (stereo partly drawn), the figure is over 100 µM; as for `Cc1cc2oc(=O)[nH]c(=S)c2c(C)c1C`, over 100 µM; as for `CC(=O)/C=C/c1ccc(C2CC(C)=Nc3c(ccc4c3C(=O)c3ccccc3C4=O)N2)cc1` (stereo not drawn), over 76.7 µM.
For the molecule `CCC(=O)COc1ccc(NC(NC(=O)C(C(F)(F)F)C(F)(F)F)(C(F)(F)F)C(F)(F)F)cc1`, the TGI was over 100 µM.
On the same count and under the same terms, as for `CCN(CC)Cc1cc(Nc2c3ccccc3nc3c2[nH]c2ccccc23)ccc1O`, the figure is 4.06 µM; as for `CC(C)/C=N\n1c(N)c(C#N)c(C#N)c1C(C)C`, over 100 µM.
Turning to `O=S(O)c1cc(Cl)cc(Cl)c1O`, the TGI was over 100 µM.
For the molecule `CCOP(=O)(OCC)/C(C#N)=C/c1ccco1`, the TGI is over 100 µM.
Take `CC(C)(C)N1NC1C1NN1C(C)(C)C` (stereo not drawn): the TGI is over 100 µM.
For `COc1ccc(-c2nc(-c3ccccc3)c(-c3ccccc3)n2C2CC2)cc1OC1CCCC1`, the GI50 is over 165 µM and the TGI is over 165 µM.
Consider `CCSc1nc(N=Cc2cccs2)c2cn[nH]c2n1`, for which the GI50 is 6.24 µM and the TGI worked out at 28 µM.
As for `O=C1CCC2(C=C(Br)C(=O)C(Br)=C2)O1`, the GI50 was 17.2 µM and the TGI was determined as 32.7 µM.
Molecule `Cc1c2c(n(CCc3ccccc3)c1C)NN=C(C#N)S2(=O)=O` registered a TGI of over 100 µM.
Same read-out and setting: as for `CCOC(=O)n1cncc1CC(NC(=O)Cc1c(C(=O)C=C(C)C)[nH]c2ccccc12)C(=O)OC` (stereo not drawn), the figure is 32.6 µM.
Take `[C-]#[O+].[C-]#[O+].[Ir].[O-]c1cccc2cccnc12`: the GI50 is over 100 µM and the TGI was over 100 µM.
Molecule `CCOC(CN=c1nc(N(C)C)ss1)OCC` gave a TGI of over 100 µM.
In the case of `O=C([CH-]C(=O)c1ccccc1)c1ccccc1.O=C([CH-]C(=O)c1ccccc1)c1ccccc1.[Nd+3].[OH-].[OH3+]`, the GI50 was 14.6 µM and the TGI was 56.1 µM.
On to `CN(C)Cc1ccc(C(=O)Nc2ccc3ncnc(Nc4ccc(Oc5cccc(F)c5)c(Cl)c4)c3c2)cc1`, for which the GI50 was 1.38 µM and the TGI was 2.71 µM.
For `CC1(C)COC(/C=C/C2=NC(C)(C)CO2)=N1`, the TGI is 91.8 µM.
For the molecule `O=c1cc(-c2ccccc2)nc2n1CCN2Cc1ccccc1`, the GI50 was 39.8 µM and the TGI is over 100 µM.
Consider `O=C1CCC2SC1CCC2=O`, for which the TGI is over 100 µM.
On to `OCCCCC#Cc1ccccc1C#Cc1ccccc1C(F)(F)F`, for which the GI50 was 12.6 µM and the TGI stood at 26.5 µM.
Regarding `C/C=C(/C)C(=O)O[C@H]1C(C)=C[C@]23C(=O)[C@@H](C=C(COC(C)=O)[C@@H](O)[C@]12O)[C@H]1[C@@H](C[C@H]3C)[C@@]1(C)OC(=O)/C(C)=C\C`, the TGI was determined as 6.51 µM.
As to `O=C(NC(=S)Nc1ccc(Cl)cc1)c1ccccc1`, the GI50 is over 100 µM and the TGI was over 100 µM.
Regarding `O=C(O)C1CC(c2ccccc2)=NN1c1ccccc1` (stereo not drawn), the TGI is over 100 µM.
Take `O=S1(=O)CCN(Cc2ccccc2)/C1=N\S(=O)(=O)c1ccc(Cl)cc1`: the TGI was over 100 µM.
On the same count and under the same terms, in the case of `CC(C)C(N=Cc1ccccc1O)C(=O)O` (stereo not drawn) it was over 100 µM; in that of `O=S(=O)(c1ccc(I)cc1)N(c1ccccc1)S(=O)(=O)C(F)(F)C(F)(F)C(F)(F)C(F)(F)F`, 66.1 µM.
The molecule `O=C(O)c1cc2c(cn1)[nH]c1ccccc12` yielded a TGI of over 100 µM.
`CC(=O)OC(C)(C)/C=C/C(=O)[C@](C)(O)[C@H]1[C@H](O)C[C@@]2(C)[C@@H]3CC=C4[C@@H](C[C@H](O)C(=O)C4(C)C)[C@]3(C)C(=O)C[C@]12C`: the TGI amounted to 13.4 µM.
Turning to `CCOC(=O)Oc1c(OC)cc(C(=O)O[C@@H]2C[C@@H]3CN4CCc5c([nH]c6cc(OC)ccc56)[C@H]4C[C@@H]3[C@H](C(=O)OC)[C@H]2OC)cc1OC`, the GI50 was 18.6 µM and the TGI stood at 71.3 µM.
In the case of `CC1N(C)C(=O)OC12CCN(CCCC(=O)c1ccc(F)cc1)CC2` (stereo not drawn), the TGI was over 100 µM.
`O=C1OC2(c3ccccc3Oc3ccccc32)c2ccccc21` came in with a TGI of over 100 µM.
`COC(=O)[C@H](Cc1ccccc1)NC(=O)N1CCN(C(=O)N[C@@H](Cc2ccccc2)C(=O)OC)CCN(C(=O)N[C@@H](Cc2ccccc2)C(=O)OC)CC1` returned a TGI of over 100 µM.
In the case of `COc1ccc(/C=C2/C[N+](C)(C)C/C(=C/c3ccc(OC)cc3)C2=O)cc1`, the TGI was over 100 µM.
For the molecule `COc1cc(-c2coc3c(OC)c(OC4OC(CO)C(O)C(O)C4O)c(OC)cc3c2=O)cc(OC)c1C` (stereo not drawn), the TGI was determined as 28.8 µM.
`COC(=O)C1=C(O)C(O)=C(C(=O)OC)C1` showed a TGI of over 100 µM.
For `COC[n+]1cc2cc(OC)c(OC)cc2c2ccc3cc(OC)c(OC)cc3c21`, the TGI is over 100 µM.
Regarding `COc1ccc2[nH]c(Cl)c(/C=C3/C(=O)N(C)c4ccccc43)c2c1`, the GI50 is 53.4 µM and the TGI was over 100 µM.
For `Cc1cc2c(F)c(Oc3ncnn4cc(OC[C@@H](C)OC(=O)[C@H](C)N)c(C)c34)ccc2[nH]1` the same measures were 13.2 µM and 26.6 µM.
In the case of `C=CCOCn1ccc(=O)[nH]c1=O`, the TGI is over 100 µM.
The same measure, in the same setting: in the case of `COC1OC(CO)C(O)C(OC(=O)c2cc(O)c(O)c(O)c2)C1OC(=O)c1cc(O)c(O)c(O)c1` (stereo not drawn) it was over 100 µM; in that of `C[C@]12CCC(=O)C(O)=C1CC[C@@H]1[C@@H]2CC[C@]2(C)C(=O)CC[C@@H]12`, over 100 µM.
For the molecule `COc1ccc(CN(CCc2c[nH]c3ccccc23)Cc2ccc(OC)cc2)cc1`, the TGI stood at 10.9 µM.
`c1ccc(N=C2c3ccccc3C3=NCCCN32)cc1` returned a TGI of over 100 µM.
With `CC(C(=O)Oc1ccc2ccccc2c1-c1c(O)ccc2ccccc12)c1ccccc1` (stereo not drawn), the TGI amounted to 29.6 µM.
`O=C(CCCn1ccnc1[N+](=O)[O-])NCCn1ccnc1` had a TGI of over 100 µM.
In the case of `[N-]=[N+]=NC1C(Br)C(=O)NC(=O)N1[C@H]1C[C@H](O)[C@@H](CO)O1` (stereo partly drawn), the TGI was over 100 µM.
`CCCCCc1c2nc(c(CCCCC)c3ccc([nH]3)c(CCCCC)c3ccc([nH]3)c(CCCCC)c3nc1C=C3)C=C2` registered a TGI of over 100 µM.
With `CC(=O)Nc1ccc2c(C)c3c4ccccc4n(C)c3nc2n1`, the TGI is over 100 µM.
Consider `S=C(N/N=C/c1ccccn1)Nc1ccccn1`, for which the GI50 is 1.68 µM and the TGI was over 100 µM.
In turn, `O=C(O)C12C3CCCC1C2CC3` (stereo not drawn) came in with a TGI of over 100 µM.
Still for that read-out and setting: as for `S=C(Nc1cccc(Cl)c1)Nc1ccccn1`, the figure is over 100 µM; as for `NC1=NC(OCC2(CO)CCC2)C=C(NCC2(CO)CCC2)N1` (stereo not drawn), over 100 µM; as for `[N-]=[N+]=Nc1ccc2c(c1)Sc1ccccc1N2CCCCCl`, over 100 µM.
For the molecule `C=C1C(=O)OC2CC3(CO3)C3C(O)C(O)CC3(C)CC12` (stereo not drawn), the TGI was over 100 µM.
Still for that read-out and setting: in the case of `O=c1cc(-c2cccc(OC(F)(F)F)c2)[nH]c2cc3c(cc12)OCO3` it was over 100 µM; in that of `O=C(c1ccncc1)n1nc(-c2ccccc2)c(N=Nc2ccc([N+](=O)[O-])cc2)c1-c1ccccc1`, over 100 µM.
With `CCN(CC)CCOc1ccc(/C=C2\CC3C4CC=C5C[C@@H](N6CCCC6)CC[C@]5(C)C4CC[C@]3(C)[C@H]2O)cc1OC` (stereo partly drawn), the GI50 was 10.6 µM and the TGI was 39.8 µM.
`COc1ccc(-c2nc(-c3cn(C)c4ncccc34)cs2)cc1`: the GI50 is over 100 µM and the TGI is over 100 µM.
`Cc1cc2c(s1)C(=O)c1sccc1C2=O` came in with a TGI of 3.23 µM.
As to `COc1ccc2c3ccc4c(c3n(C)c2c1)C(=O)c1ccccc1C4=O`, the TGI was over 100 µM.
For the molecule `O=C(NOCC1CC1)c1ccc(F)c(F)c1Nc1ccc(I)cc1Cl`, the GI50 is 0.875 µM and the TGI came out at 10.7 µM.
For `COc1c(O)ccc2c1CN1CCc3cc4c(cc3C1C2)OCO4` (stereo not drawn), the TGI is 99.5 µM.
Same read-out and setting: in the case of `COc1ccc(SC(C)(SC)c2ccccn2)c(OC)n1` (stereo not drawn) it was over 100 µM.
The molecule `COc1cc2[nH]c(-c3cccc(N(C)C)c3)cc(=O)c2cc1OC` returned a TGI of over 100 µM.
Consider `Cc1ccc2c(N)c(C(=O)N[C@H]3CCc4cc(N5CC6CCC(C5)N6)ccc4C3)sc2n1`, for which the GI50 was 0.386 µM and the TGI came to 2.21 µM.
As for `N=C1C(=N)c2ccccc2-c2ccccc21`, the TGI is 3.26 µM.
With `CCOC(=O)c1ccc(N2C(=O)/C(=C\OC)c3ccccc3C2=O)cc1`, the TGI is over 100 µM.
In the case of `Cc1cc(S(=O)(=O)Nc2nnc(-c3ccccc3)c(-c3ccccc3)n2)c(SCc2ccccc2)cc1Cl`, the GI50 was 14.1 µM and the TGI was found to be 30.9 µM.
Take `COc1cccc(-c2cc(=O)c3cc(N)ccc3[nH]2)c1`: the TGI was over 100 µM.
`Nc1nc(SCc2ccccc2)c2ncn(Cc3ccccc3)c2n1` gave a TGI of over 100 µM.
Take `CC1=Cc2cc3[n-]c(cc4nc(cc5[n-]c(cc1n2)cc5C)C(C)=C4CCC(=O)O)c(CCC(=O)O)c3C.[Pd+2]`: the GI50 was 23.9 µM and the TGI is 40.6 µM.
`CCOC(=O)c1nc2ccc(C(F)(F)F)cc2nc1Oc1ccc(F)cc1` had a TGI of over 100 µM.
With `CNC(=O)c1cccc(-c2ccc3c(N4CCOC[C@@H]4C)nc(N4CCOC[C@@H]4C)nc3n2)c1`, the GI50 is 0.0941 µM and 0.152 µM and 0.101 µM.
Consider `Cn1c2nc3ccccc3c-2cc2ccccc21`, for which the TGI was > 28.7 µM and 14 µM.
`C[N+]1(C)CCC(C#N)(c2ccccc2)CC1` yielded a TGI of over 100 µM.
The molecule `CC(=O)CCC[C@@H](C)[C@@H]1O[C@H]([C@@]2(C)CCC(=O)O2)C[C@H]2C(CSc3ccccc3)C(=O)O[C@@H]12` (stereo partly drawn) had a TGI of over 55.9 µM.
For the molecule `O=C1CC2(CCC(O)(c3ccc(Cl)cc3)C(C(=O)c3ccc(Cl)cc3)C2)C(=O)c2ccccc2N1` (stereo not drawn), the TGI was over 92.4 µM.
As for `Cc1ccc2c(=O)c3cccc(CC(=O)O)c3oc2c1C`, the GI50 is over 100 µM and the TGI is over 100 µM.
`O=S(=O)(O)c1c(N=Nc2c(O)ccc3ccccc23)ccc2ccccc12` showed a TGI of over 100 µM.
As for `COc1cccc(-c2nc3c(C(=O)NCCN(C)C)cccc3[nH]2)c1`, the TGI amounted to 30.6 µM.
`COC(=O)c1nc(NC#N)[nH]c(=O)c1C` yielded a TGI of over 100 µM.
`CCOC(=O)CC[C@@H](NC(=O)c1ccc(N[C@@H]2c3cc4c(cc3C(c3cc(OC)c(O)c(OC)c3)C3C(=O)OC[C@@H]32)OCO4)cc1)C(=O)OCC` (stereo partly drawn) gave a TGI of 0.833 µM.
As to `N=C(N)CCCCCCCCC(=N)N`, the GI50 is 35.3 µM and the TGI is over 100 µM.
